{"source": "the supplement of paper PMC9588766", "note": "Counter-ions that a name gives are not always drawn. The full ranking holds about 1,900 compounds; the median of “cell viability of compound + 1 nM pemigatinib relative to pemigatinib-only (DMSO) wells” is about 0.95, and the lowest 2% start at about 0.22. This is one part of the list.", "data": [{"system": "PDC-DUC18828", "test": "cell viability of compound + 1 nM pemigatinib relative to pemigatinib-only (DMSO) wells (fraction); PDC-DUC18828 is a patient-derived cholangiocarcinoma cell line; higher = less growth inhibition", "settings": "first compound 1 µM; pemigatinib concentration 1 nM; 72 h", "experimental": "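Selleck Bioactive library screen in the patient-derived FGFR2 fusion-positive ICC cell line PDC-DUC18828 (500 cells/well). Each compound was tested at 1 uM with 1 nM pemigatinib, in triplicate, for 72 h. Viability was read by CellTiter-Glo and normalised to plate DMSO controls. Value is the paper's averaged normalised viability.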", "values": [{"smiles": "CCS(=O)(=O)CCn1c([N+](=O)[O-])cnc1C", "note": "[Tinidazole] + CCN1C(=O)N(c2c(F)c(OC)cc(OC)c2F)Cc2cnc3[nH]c(CN4CCOCC4)cc3c21 [pemigatinib]", "cell viability": 0.945}, {"smiles": "COC(=O)[C@@H]1[C@H]2C[C@H]3c4[nH]c5ccccc5c4CCN3C[C@@H]2CC[C@@H]1O", "note": "[Yohimbine HCl] + CCN1C(=O)N(c2c(F)c(OC)cc(OC)c2F)Cc2cnc3[nH]c(CN4CCOCC4)cc3c21 [pemigatinib]", "cell viability": 0.891}, {"smiles": "Oc1c2ccccc2c2c3c(cccc13)N=N2", "note": "+ CCN1C(=O)N(c2c(F)c(OC)cc(OC)c2F)Cc2cnc3[nH]c(CN4CCOCC4)cc3c21 [pemigatinib]", "cell viability": 0.963}, {"smiles": "CCC1C/C(=C\\c2cccnc2)C(=O)/C(=C/c2cccnc2)C1", "note": "(configuration not stated) + CCN1C(=O)N(c2c(F)c(OC)cc(OC)c2F)Cc2cnc3[nH]c(CN4CCOCC4)cc3c21 [pemigatinib]", "cell viability": 0.65}, {"smiles": "O=C(/C=C\\n1cnc(-c2cc(C(F)(F)F)cc(C(F)(F)F)c2)n1)NNc1cnccn1", "note": "+ CCN1C(=O)N(c2c(F)c(OC)cc(OC)c2F)Cc2cnc3[nH]c(CN4CCOCC4)cc3c21 [pemigatinib]", "cell viability": 0.536}, {"smiles": "CN(C)Cc1ccc(-c2nc3cccc4c3n2CCNC4=O)cc1", "note": "+ CCN1C(=O)N(c2c(F)c(OC)cc(OC)c2F)Cc2cnc3[nH]c(CN4CCOCC4)cc3c21 [pemigatinib]", "cell viability": 1.06}, {"smiles": "Cc1[nH]c(/C=C2\\C(=O)Nc3ccc(S(=O)(=O)N(C)c4cccc(Cl)c4)cc32)c(C)c1C(=O)N1CCN(C)CC1", "note": "+ CCN1C(=O)N(c2c(F)c(OC)cc(OC)c2F)Cc2cnc3[nH]c(CN4CCOCC4)cc3c21 [pemigatinib]", "cell viability": 0.919}, {"smiles": "CC(C)C[C@H](NC(=O)[C@H]1O[C@@H]1C(=O)O)C(=O)NCCCCN=C(N)N", "note": "+ CCN1C(=O)N(c2c(F)c(OC)cc(OC)c2F)Cc2cnc3[nH]c(CN4CCOCC4)cc3c21 [pemigatinib]", "cell viability": 0.994}, {"smiles": "Cc1nc(NC(=O)N2CCC[C@H]2C(N)=O)sc1-c1ccnc(C(C)(C)C(F)(F)F)c1", "note": "+ CCN1C(=O)N(c2c(F)c(OC)cc(OC)c2F)Cc2cnc3[nH]c(CN4CCOCC4)cc3c21 [pemigatinib]", "cell viability": 0.802}, {"smiles": "CC(C)NCC(O)COc1cccc2ccccc12", "note": "(configuration not stated) [Propranolol HCl] + CCN1C(=O)N(c2c(F)c(OC)cc(OC)c2F)Cc2cnc3[nH]c(CN4CCOCC4)cc3c21 [pemigatinib]", "cell viability": 0.906}, {"smiles": "CC(N)C12CC3CC(CC(C3)C1)C2", "note": "(configuration not stated) [Rimantadine] + CCN1C(=O)N(c2c(F)c(OC)cc(OC)c2F)Cc2cnc3[nH]c(CN4CCOCC4)cc3c21 [pemigatinib]", "cell viability": 1}, {"smiles": "CCOC(=O)c1c(C)n(C)c2ccc(O)cc12", "note": "[Mecarbinate] + CCN1C(=O)N(c2c(F)c(OC)cc(OC)c2F)Cc2cnc3[nH]c(CN4CCOCC4)cc3c21 [pemigatinib]", "cell viability": 1.06}, {"smiles": "COc1ccc(C[C@@H]2c3cc(OC)c(OC)cc3CC[N@+]2(C)CCC(=O)OCCCCCOC(=O)CC[N@@+]2(C)CCc3cc(OC)c(OC)cc3[C@H]2Cc2ccc(OC)c(OC)c2)cc1OC", "note": "[Cisatracurium Besylate] + CCN1C(=O)N(c2c(F)c(OC)cc(OC)c2F)Cc2cnc3[nH]c(CN4CCOCC4)cc3c21 [pemigatinib]", "cell viability": 1}, {"smiles": "Fc1cc(-c2cccc3ncc(-c4cnn(C5CCNCC5)c4)nc23)cc(F)c1CN1CCOCC1", "note": "+ CCN1C(=O)N(c2c(F)c(OC)cc(OC)c2F)Cc2cnc3[nH]c(CN4CCOCC4)cc3c21 [pemigatinib]", "cell viability": 0.992}, {"smiles": "CN(CCOc1ccc(CC2SC(=O)NC2=O)cc1)c1ccccn1", "note": "(configuration not stated) [Rosiglitazone maleate] + CCN1C(=O)N(c2c(F)c(OC)cc(OC)c2F)Cc2cnc3[nH]c(CN4CCOCC4)cc3c21 [pemigatinib]", "cell viability": 0.976}, {"smiles": "CN(CCOc1ccc(CC2SC(=O)NC2=O)cc1)c1ccccn1", "note": "(configuration not stated) [Rosiglitazone HCl] + CCN1C(=O)N(c2c(F)c(OC)cc(OC)c2F)Cc2cnc3[nH]c(CN4CCOCC4)cc3c21 [pemigatinib]", "cell viability": 1.05}, {"smiles": "CN(CCOc1ccc(CC2SC(=O)NC2=O)cc1)c1ccccn1", "note": "(configuration not stated) [Rosiglitazone] + CCN1C(=O)N(c2c(F)c(OC)cc(OC)c2F)Cc2cnc3[nH]c(CN4CCOCC4)cc3c21 [pemigatinib]", "cell viability": 0.921}, {"smiles": "NCc1c[nH]c(=S)n1[C@@H]1CCc2c(F)cc(F)cc2C1", "note": "[(R)-Nepicastat HCl] + CCN1C(=O)N(c2c(F)c(OC)cc(OC)c2F)Cc2cnc3[nH]c(CN4CCOCC4)cc3c21 [pemigatinib]", "cell viability": 0.905}, {"smiles": "Cc1ccc2c(Cl)cc(Cl)c(O)c2n1", "note": "[Chlorquinaldol] + CCN1C(=O)N(c2c(F)c(OC)cc(OC)c2F)Cc2cnc3[nH]c(CN4CCOCC4)cc3c21 [pemigatinib]", "cell viability": 0.96}, {"smiles": "N=C(N)N/N=C/c1c(Cl)cccc1Cl", "note": "[Guanabenz Acetate] + CCN1C(=O)N(c2c(F)c(OC)cc(OC)c2F)Cc2cnc3[nH]c(CN4CCOCC4)cc3c21 [pemigatinib]", "cell viability": 0.91}, {"smiles": "CN(C)CCOC(=O)COc1ccc(Cl)cc1", "note": "[Meclofenoxate (Centrophenoxine) HCl] + CCN1C(=O)N(c2c(F)c(OC)cc(OC)c2F)Cc2cnc3[nH]c(CN4CCOCC4)cc3c21 [pemigatinib]", "cell viability": 0.955}, {"smiles": "Brc1c(NC2=NCCN2)ccc2nccnc12", "note": "[Brimonidine Tartrate] + CCN1C(=O)N(c2c(F)c(OC)cc(OC)c2F)Cc2cnc3[nH]c(CN4CCOCC4)cc3c21 [pemigatinib]", "cell viability": 0.99}, {"smiles": "C[C@H](Oc1cc(-c2cnn(C3CCNCC3)c2)cnc1N)c1c(Cl)ccc(F)c1Cl", "note": "[(S)-crizotinib] + CCN1C(=O)N(c2c(F)c(OC)cc(OC)c2F)Cc2cnc3[nH]c(CN4CCOCC4)cc3c21 [pemigatinib]", "cell viability": 0.938}, {"smiles": "CCCCC(=O)N(Cc1ccc(-c2ccccc2-c2nnn[nH]2)cc1)[C@H](C(=O)O)C(C)C.CCOC(=O)[C@H](C)C[C@@H](Cc1ccc(-c2ccccc2)cc1)NC(=O)CCC(=O)O", "note": "+ CCN1C(=O)N(c2c(F)c(OC)cc(OC)c2F)Cc2cnc3[nH]c(CN4CCOCC4)cc3c21 [pemigatinib]", "cell viability": 0.916}, {"smiles": "Cc1cc(Nc2nc(N[C@@H](C)c3ncc(F)cn3)ncc2Cl)[nH]n1", "note": "+ CCN1C(=O)N(c2c(F)c(OC)cc(OC)c2F)Cc2cnc3[nH]c(CN4CCOCC4)cc3c21 [pemigatinib]", "cell viability": 0.62}, {"smiles": "OC[C@H]1O[C@@H](O[C@@H]2[C@@H](CO)OC(O)(CO)[C@H]2O)[C@H](O)[C@@H](O)[C@H]1O", "note": "(mixture of isomers) [Lactulose] + CCN1C(=O)N(c2c(F)c(OC)cc(OC)c2F)Cc2cnc3[nH]c(CN4CCOCC4)cc3c21 [pemigatinib]", "cell viability": 1.02}, {"smiles": "CC[C@@H]1/C=C(\\C)C[C@H](C)C[C@H](OC)[C@H]2O[C@@](O)(C(=O)C(=O)N3CCCC[C@H]3C(=O)O[C@H](/C(C)=C/[C@@H]3CC[C@H](Cl)[C@H](OC)C3)[C@H](C)[C@@H](O)CC1=O)[C@H](C)C[C@@H]2OC", "note": "[Pimecrolimus] + CCN1C(=O)N(c2c(F)c(OC)cc(OC)c2F)Cc2cnc3[nH]c(CN4CCOCC4)cc3c21 [pemigatinib]", "cell viability": 0.982}, {"smiles": "CCN(c1cc(-c2ccc(CN3CCOCC3)cc2)cc(C(=O)NCc2c(C)cc(C)[nH]c2=O)c1C)C1CCOCC1", "note": "+ CCN1C(=O)N(c2c(F)c(OC)cc(OC)c2F)Cc2cnc3[nH]c(CN4CCOCC4)cc3c21 [pemigatinib]", "cell viability": 0.92}, {"smiles": "Cn1c([N+](=O)[O-])cnc1COC(N)=O", "note": "[Ronidazole] + CCN1C(=O)N(c2c(F)c(OC)cc(OC)c2F)Cc2cnc3[nH]c(CN4CCOCC4)cc3c21 [pemigatinib]", "cell viability": 0.982}, {"smiles": "O=C(O)CC1CC(c2ccccc2)=NO1", "note": "(configuration not stated) + CCN1C(=O)N(c2c(F)c(OC)cc(OC)c2F)Cc2cnc3[nH]c(CN4CCOCC4)cc3c21 [pemigatinib]", "cell viability": 1}, {"smiles": "CN(C)[C@@H]1C(O)=C(C(N)=O)C(=O)[C@@]2(O)C(O)=C3C(=O)c4c(O)ccc(Cl)c4[C@@H](O)[C@H]3C[C@@H]12", "note": "[Demeclocycline HCl] + CCN1C(=O)N(c2c(F)c(OC)cc(OC)c2F)Cc2cnc3[nH]c(CN4CCOCC4)cc3c21 [pemigatinib]", "cell viability": 0.989}, {"smiles": "C[C@@H]1CN(CC(=O)Nc2ccc3c(c2)Cc2cccc(-c4cc(=O)cc(N5CCOCC5)o4)c2S3)C[C@H](C)O1", "note": "+ CCN1C(=O)N(c2c(F)c(OC)cc(OC)c2F)Cc2cnc3[nH]c(CN4CCOCC4)cc3c21 [pemigatinib]", "cell viability": 0.984}, {"smiles": "CCC[C@H](NC(=O)[C@@H]1[C@H]2CCC[C@H]2CN1C(=O)[C@@H](NC(=O)[C@@H](NC(=O)c1cnccn1)C1CCCCC1)C(C)(C)C)C(=O)C(=O)NC1CC1", "note": "[Telaprevir (VX-950)] + CCN1C(=O)N(c2c(F)c(OC)cc(OC)c2F)Cc2cnc3[nH]c(CN4CCOCC4)cc3c21 [pemigatinib]", "cell viability": 1.03}, {"smiles": "CCc1cccc2c3c([nH]c12)C(CC)(CC(=O)O)OCC3", "note": "(configuration not stated) [Etodolac] + CCN1C(=O)N(c2c(F)c(OC)cc(OC)c2F)Cc2cnc3[nH]c(CN4CCOCC4)cc3c21 [pemigatinib]", "cell viability": 0.975}, {"smiles": "Cc1noc(NS(=O)(=O)c2ccc(N)cc2)c1C", "note": "[Sulfisoxazole] + CCN1C(=O)N(c2c(F)c(OC)cc(OC)c2F)Cc2cnc3[nH]c(CN4CCOCC4)cc3c21 [pemigatinib]", "cell viability": 0.963}, {"smiles": "Cc1nc(N)sc1-c1ccnc(Nc2ccc(N3CCOCC3)cc2)n1", "note": "+ CCN1C(=O)N(c2c(F)c(OC)cc(OC)c2F)Cc2cnc3[nH]c(CN4CCOCC4)cc3c21 [pemigatinib]", "cell viability": 0.931}, {"smiles": "C[C@]12CC[C@@H]3c4ccc(O)cc4CC[C@H]3[C@@H]1C[C@@H](O)[C@@H]2O", "note": "[Estriol] + CCN1C(=O)N(c2c(F)c(OC)cc(OC)c2F)Cc2cnc3[nH]c(CN4CCOCC4)cc3c21 [pemigatinib]", "cell viability": 0.913}]}]}
